Holding throughout (assay type): biochemical, human
Substrate in data set [1]: CC(C)c1nc(CN2C(=O)c3cccc4cccc(c34)C2=O)cs1
As to the kind of experiment: Enzyme kinetic analyses of NFs 4-hydroxylation by hCYP3A4. Conditions: other: 4‐hydroxylation by hCYP3A4.

Substrate in data set [2]: O=C1c2cccc3cccc(c23)C(=O)N1Cc1cscn1
The description is as above. The note with it: other: 4‐hydroxylation by hCYP3A4.

Substrate in data set [3]: Cc1nc(CN2C(=O)c3cccc4cccc(c34)C2=O)cs1
Described as above. The note with it: other: 4‐hydroxylation by hCYP3A4.

Substrate in data set [4]: CC(C)c1nc(CN2C(=O)c3cccc4cccc(c34)C2=O)cs1
The data set can be described thus: Enzyme kinetic analyses of NFs 4-hydroxylation in HLMs. Conditions: other: 4-hydroxylation in HLMs.

Substrate in data set [5]: O=C1c2cccc3cccc(c23)C(=O)N1Cc1cscn1
Described as above. Conditions: other: 4-hydroxylation in HLMs.

Substrate in data set [6]: Cc1nc(CN2C(=O)c3cccc4cccc(c34)C2=O)cs1
Described as above. The note with it: other: 4-hydroxylation in HLMs.

B1: hCYP3A4 (Homo sapiens) (protein)
chain: MALIPDLAMETWLLLAVSLVLLYLYGTHSHGLFKKLGIPGPTPLPFLGNILSYHKGFCMFDMECHKKYGKVWGFYDGQQPVLAITDPDMIKTVLVKECYSVFTNRRPFGPVGFMKSAISIAEDEEWKRLRSLLSPTFTSGKLKEMVPIIAQYGDVLVRNLRREAETGKPVTLKDVFGAYSMDVITSTSFGVNIDSLNNPQDPFVENTKKLLRFDFLDPFFLSITVFPFLIPILEVLNICVFPREVTNFLRKSVKRMKESRLEDTQKHRVDFLQLMIDSQNSKETESHKALSDLELVAQSIIFIFAGYETTSSVLSFIMYELATHPDVQQKLQEEIDAVLPNKAPPTYDTVLQMEYLDMVVNETLRLFPIAMRLERVCKKDVEINGMFIPKGVVVMIPSYALHRDPKYWTEPEKFLPERFSKKNKDNIDPYIYTPFGSGPRNCIGMRFALMNMKLALIRVLQNFSFKPCKETQIPLKLSLGGLLQPEKPVVLKVESRDGTVSGA
notes: purchased Cypex
Regarding B1, the kcat came to 2.10 ± 0.04 nmol/min/nmol hCYP3A4 in data set [1], 11.42 ± 0.34 nmol/min/nmol hCYP3A4 in data set [2] and 4.19 ± 0.09 nmol/min/nmol hCYP3A4 in data set [3]. Also, in data set [2], the kcat/Km stood at 857 µL min^−1/nmol hCYP3A4.

B2: hCYP3A4 in HLMs (Homo sapiens) (protein)
chain: MALIPDLAMETWLLLAVSLVLLYLYGTHSHGLFKKLGIPGPTPLPFLGNILSYHKGFCMFDMECHKKYGKVWGFYDGQQPVLAITDPDMIKTVLVKECYSVFTNRRPFGPVGFMKSAISIAEDEEWKRLRSLLSPTFTSGKLKEMVPIIAQYGDVLVRNLRREAETGKPVTLKDVFGAYSMDVITSTSFGVNIDSLNNPQDPFVENTKKLLRFDFLDPFFLSITVFPFLIPILEVLNICVFPREVTNFLRKSVKRMKESRLEDTQKHRVDFLQLMIDSQNSKETESHKALSDLELVAQSIIFIFAGYETTSSVLSFIMYELATHPDVQQKLQEEIDAVLPNKAPPTYDTVLQMEYLDMVVNETLRLFPIAMRLERVCKKDVEINGMFIPKGVVVMIPSYALHRDPKYWTEPEKFLPERFSKKNKDNIDPYIYTPFGSGPRNCIGMRFALMNMKLALIRVLQNFSFKPCKETQIPLKLSLGGLLQPEKPVVLKVESRDGTVSGA
notes: Pooled human liver microsomes from 50 donors; tissue Bioreclamation IVT lot No. X008067; host or cells: pooled human liver microsomes (50 donors)
As for B2, in data set [4], the Michaelis-Menten constant (Km) is 3.44 ± 0.20 µM, the kcat came to 0.46 ± 0.01 nmol/min/nmol hCYP3A4 and the kcat/Km was determined as 133.72 μL/min/nmol hCYP3A4. In addition, in data set [5], the Km stood at 13.78 ± 1.71 µM, the kcat was 1.75 ± 0.09 nmol/min/nmol hCYP3A4 and the kcat/Km is on record as 127.00 μL/min/nmol hCYP3A4. Also, in data set [6], the Km worked out at 9.51 ± 1.20 µM, the kcat is on record as 1.04 ± 0.05 nmol/min/nmol hCYP3A4 and the kcat/Km is recorded as 109.36 μL/min/nmol hCYP3A4.

For orientation: Km means the substrate concentration at which the rate is half of its maximum.
